Laboratory results: the supplement of paper PMC3334620
Whole data set: some 33,000 sequences, median “E-score (-0.5 to 0.5)” near -0.054, cut for the highest 2% near 0.35. This is one part of the list.

Target: T1, Stb5 (UniProt P38699)
T1 sequence: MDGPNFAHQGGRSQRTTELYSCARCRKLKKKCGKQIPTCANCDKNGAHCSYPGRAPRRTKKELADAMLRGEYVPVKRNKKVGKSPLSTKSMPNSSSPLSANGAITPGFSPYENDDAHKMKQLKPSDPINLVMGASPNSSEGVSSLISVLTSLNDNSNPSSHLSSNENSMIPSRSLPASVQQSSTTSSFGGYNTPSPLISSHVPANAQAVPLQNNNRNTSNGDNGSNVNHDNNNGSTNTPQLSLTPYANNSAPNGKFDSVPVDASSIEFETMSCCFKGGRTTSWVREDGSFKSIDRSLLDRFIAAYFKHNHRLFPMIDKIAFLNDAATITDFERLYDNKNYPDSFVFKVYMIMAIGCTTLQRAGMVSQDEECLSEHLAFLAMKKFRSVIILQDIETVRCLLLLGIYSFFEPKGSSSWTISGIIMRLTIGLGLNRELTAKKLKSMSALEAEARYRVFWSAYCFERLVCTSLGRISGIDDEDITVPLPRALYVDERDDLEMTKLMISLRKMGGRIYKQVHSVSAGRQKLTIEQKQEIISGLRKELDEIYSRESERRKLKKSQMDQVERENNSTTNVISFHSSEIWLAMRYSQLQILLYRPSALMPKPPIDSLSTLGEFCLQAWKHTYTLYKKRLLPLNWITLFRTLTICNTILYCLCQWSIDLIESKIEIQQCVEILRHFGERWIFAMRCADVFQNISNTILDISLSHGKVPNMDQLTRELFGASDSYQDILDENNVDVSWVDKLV
Experiment: PBM E-score (8-mer binding enrichment) (E-score (-0.5 to 0.5)); higher = stronger / more preferred TF binding; most listed sequences are background and not binding sites
Conditions: protein concentration: 200 nM; construct: GST-full length
Outline: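 Bound GST-tagged yeast transcription factors, applied at about 100-200 nM to double-stranded universal all-10-mer Agilent arrays, were detected with fluorescent anti-GST. Scans were normalised with masliner. A modified Wilcoxon-Mann-Whitney statistic, the E-score, was assigned to each ungapped eight-base word pooled with its reverse complement by the Universal PBM Analysis Suite.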

In order of falling “PBM E-score” value:
1. AGAGTCCG  0.378
2. ACTCCGTG  0.352
3. CCGCCATA  0.322
4. AAAACTCC  0.292
5. CCGGACAC  0.283
6. CCGATAAA  0.281
7. CCGGGACC  0.278
8. CATCTCCG  0.276
9. CCCCGAAG  0.247
10. AGCGGAAT  0.228
11. CGTATAGC  0.224
12. GGGTGATA  0.219
13. CTATGCCC  0.204
14. CGAATTCG  0.195
15. ATCGGATC  0.195
16. CGCGCACC  0.178
17. AGGGGCCG  0.167
18. CCCGGAGC  0.159
19. GAAGCACC  0.155
20. GCACTATA  0.153
21. CGAACGCC  0.153
22. CCGTGCAG  0.15
23. AGACGGAT  0.149
24. AAGCCGCT  0.134
25. AGGCGTTA  0.122
26. CCAACACC  0.119
27. ATGAAAAC  0.116
28. ACACGGTC  0.115
29. GAAGGGAC  0.105
30. GTCGTAAA  0.0847
31. CCCACTCC  0.0762
32. GATATACA  0.0751
33. ATGTCTGC  0.0734
34. AATATTGC  0.0636
35. ATATGTAC  0.06
36. ATTCTTCC  0.0595
37. ATTACGCA  0.0584
38. ACCGTATA  0.0568
39. CGAGGTCC  0.0488
40. ACTACACA  0.048
41. ACAAGTAC  0.0459
42. CTCCTAAG  0.0338
43. GGATCAAA  0.032
44. AATTGCGT  0.029
45. TAGCAATA  0.0214
46. AAACCTCT  0.015
47. AATGACGA  0.0145
48. GACAGGTA  0.0126
49. CGTCCAGA  0.00993
50. CCTGAATA  0.00959
51. AATTTTCG  0.00251
52. CATAATAA  -0.00495
53. AAGCTGAT  -0.00913
54. GTCCATTA  -0.0228
55. CGTATATA  -0.0338
56. GATCATTA  -0.0339
57. GACTACTC  -0.0349
58. CTCGCCGA  -0.0352
59. CACTACTC  -0.0372
60. GGCTACAC  -0.0423
61. AGTATAAT  -0.0572
62. ATTCCATG  -0.0707
63. AACGACCC  -0.0753
64. AAAGACGA  -0.0756
65. CCTATAGA  -0.0772
66. CACAGACA  -0.0778
67. AGAGTTCC  -0.0784
68. CACACAGC  -0.085
69. CGCGATAA  -0.0936
70. AGCTGGGC  -0.0962
71. ACCAAAGA  -0.0979
72. GCAGTCAA  -0.0992
73. ATCTTGCA  -0.104
74. ACCTTGTC  -0.111
75. GAGATCAA  -0.112
76. TCGCGTCA  -0.112
77. CAGATGGA  -0.116
78. CCTTGTCA  -0.122
79. GGATCGCC  -0.125
80. ATAGAAAA  -0.128
81. AGCGCTCA  -0.129
82. CAAAGATA  -0.131
83. ACTCTCAC  -0.133
84. ATTGGGAG  -0.135
85. AGAGCAGA  -0.138
86. ATGCATTG  -0.141
87. TGACAGAA  -0.146
88. AGTTACAG  -0.151
89. ATGTTTCA  -0.152
90. TACTACCA  -0.159
91. CACGATAG  -0.164
92. AGGACAAG  -0.167
93. CCAAATGA  -0.169
94. CAGAGGCA  -0.171
95. GACCATCC  -0.175
96. AAGACCAT  -0.18
97. AACAGGTC  -0.188
98. ACGTGTAC  -0.196
99. GCATATCC  -0.197
100. AGAACAAT  -0.197
101. CAATCCAA  -0.204
102. AAATGTGA  -0.209
103. AAGCCACA  -0.222
104. GAACGCGA  -0.227
105. AAACTGGG  -0.247
106. GCACACCA  -0.251
107. AGATACTG  -0.265
108. AAAGTGTG  -0.269
109. CTCACAAG  -0.286
110. AGGGAGAG  -0.358
